# Reference: PubChem BioAssay AID902 (National Center for Advancing Translational Sciences (NCATS), 2007)
# Screen size: about 130,000 compounds; about 1,900 (1.5%) were called active. This list was built around the results that the source calls inconclusive (neither active nor inactive); the mix of calls is not that of the screen. Calls follow the shape of the dose curve; as a rule, active = well fitted cell-killing curve with a large enough effect; inconclusive = small, poorly fitted or top-dose-only effect; inactive = no such curve, though single readings can be large or run the other way. Potencies of inconclusive entries are doubtful fits and often do not repeat.
# Test: qHTS Screen for Compounds that Selectively Target Cancer Cells with p53 Mutations: Cytotoxicity of p53ts Cells at the Nonpermissive Temperature; also: nearly all actives have a fitted effect of over 55% in size
# Settings: H1299-p53A138V viability at 39C, ATP luminescence, 24 h; series mostly up to 46.1 µM
# From the text: NIH Chemical Genomics Center [NCGC] NIH Molecular Libraries Screening Centers Network [MLSCN] MLSCN Grant: 1 X01 MH079844-01 Assay Submitter (PI): Dr. SUN, YI, University of Michigan NCGC Assay Overview: Synthetic Lethal Screen for Compounds to Kill Cancer Cells with p53 Mutation. Tumor suppressor gene p53 serves as a major cellular barrier against tumorigenesis. […] The goal of this screening is to identify small molecule probes that selectively kill cancer cells with mutations in p53. This screening was carried out using two lines of H1299 lung cancer cells. The H1299-p53 A138V line express a temperature sensitive p53 mutant (p53ts) in which the mutant p53 protein (A138V) is in the mutant confirmation when grown at 39C (the nonpermissive temperature) and in the wild type conformation when grown at 32C (the permissive temperature). A H1299-neo line (p53 null) grown at both 39C and 32C were used as counter-screens to filter out false positive associated with temperature shifting. The small molecular compounds that selectively target mutant p53-containing cancer cells were selected as candidate probes for further study. A cytotoxicity assay based on the measurement of ATP contents in cells was used in this screen. Concentration-responses of all the compounds in the library collection were determined in qHTS using the cell lines and temperature conditions as above.
# NCGC Assay Protocol Summary: Both the H1299-p53A138V and H1299-neo cell lines were provided by Dr.Yi Sun, a PI at the University Michigan. The cells were maintained and cultured at 37C. The resuspended frozen cells were used to plate the cells in the 1536-well assay plates at a density of 600 cells per well in 5 ul medium. The assay plates with the cells were incubated at 37C for 16 to 30 hours before the experiments. The library compounds in DMSO solution were added to the cells in assay plates and incubated 24 hours at 39C (for mutant p53 conformation) or 32C (for normal p53 conformation as control). An ATP_lite assay kit (PerkinElmer) was used to determine the cell viability. Tomaxifen (100uM) was used as the positive control for cell killing. Data were normalized to the controls for basal activity (DMSO only) and 100% killing (100uM tamoxifen). AC50 values were determined from concentration-response data modeled with the standard Hill equation. P53 assay protocol: 1. Reagent; 5 uL H1299-p53A138V or H1299-neo cell cells/well 2. Time; overnight; 37C incubation 3. Compounds; 23 nL; 5.9 nM to 46 uM 4. Controls; 23 nL; Tamoxifen 100 uM 5. Time; 24 hr; 39C incubation 6. Reagent; 3 uL; ATP_Lite reagent 7. Time; 20 min; Room Temperature 8. Detection; Luminescence; Viewlux plate reader Keywords: p53, synthetic lethal, cancer, cell viability, cytotoxicity, H1299 cell line, luminescence, MLSMR, MLSCN, NIH Roadmap, qHTS, NCGC
# Potency is read from the fitted curve at half-maximal effect; tags tell the direction and shape of the fitted curve.
row,Compound,Potency
1,O=C(Oc1c(CN2CCOCC2)cc(Cl)c2cccnc12)c1ccc(F)cc1,"inconclusive: 12.6 µM [cytotoxic, single point]"
2,CCC(=O)c1ccc(OCC(=O)Nc2nn3cnnc3s2)cc1,"inconclusive: 31.6 µM [cytotoxic, single point]"
3,CC1CCN(c2ccc(-c3nc(-c4ccccc4)no3)cc2[N+](=O)[O-])CC1,active: 22.4 µM
4,Cc1ccccc1Cn1cnc2nc3c(cc2c1=O)CC(C)CC3 (configuration not stated),"inconclusive: 7.94 µM [cytotoxic, partial curve]"
5,O=C(Nc1cccc(C(F)(F)F)c1)Nc1cccs1,"inconclusive: 10 µM [cytotoxic, partial curve]"
6,CCOc1ccc(CNC(=O)CCn2c(=O)c3cccn3c3ccc(F)cc32)cc1,"inconclusive: 6.31 µM [cytotoxic, single point]"
7,CCOc1ccc2nc(N3CCC(C(=O)Nc4cc(C)ccc4C)CC3)sc2c1,"inconclusive: 15.8 µM [cytotoxic, partial curve]"
8,Cc1cc(C)n(-c2ccc(C(=O)Nc3ccc4c(c3)OCCO4)cc2)n1,"inconclusive: 12.6 µM [cytotoxic, partial curve]"
9,COc1ccc(-c2csc3nc(-c4ccccc4)oc(=O)c23)cc1OC,"inconclusive: 31.6 µM [cytotoxic, single point]"
10,CCOC(=O)c1ccc(CN(Cc2ccccc2)S(=O)(=O)c2ccc(Cl)cc2)cc1,"inconclusive: 2.51 µM [cytotoxic, partial curve, poor fit]"
11,CCCCC(=O)OC1CCC2C3CCc4cc(O)ccc4C3CC[C@]12C (some centres not stated),"inconclusive: 25.1 µM [cytotoxic, single point]"
12,COc1ccc(Nc2cc(C(=O)NCCCN(C)Cc3ccccc3)c3ccccc3n2)c(OC)c1,"inconclusive: 14.1 µM [cytotoxic, single point]"
13,CCOc1ccc(NC(=O)c2ccc3c(SCC(=O)O)c4c(nc3c2)CCC4)cc1,"inconclusive: 31.6 µM [cytotoxic, single point]"
14,COc1ccc(OC)c(C2c3c(-c4ccc(Br)cc4)n[nH]c3C(=O)N2c2ccc(Cl)cc2)c1 (configuration not stated),"inconclusive: 31.6 µM [cytotoxic, single point]"
15,COc1ccc(-n2c(=O)c(-c3cc(F)cc(F)c3)nc3cnc(N4CCNCC4)nc32)cc1,"inconclusive: 31.6 µM [cytotoxic, single point]"
16,CCOC(=O)c1c(Nc2cccc(C(=O)OC)c2)nnc(-c2ccccc2)c1-c1ccccc1,inactive
17,CCOc1ccccc1-c1noc(CSc2nnc(-c3ccccc3)n2-c2cccc(C)c2)n1,inactive
